# The list shows a part of the results. These are noisy estimates, calculated here from bound and input reads.
# Biological target: T1, Pho4 (S. cerevisiae) (UniProt P07270)
# T1 sequence: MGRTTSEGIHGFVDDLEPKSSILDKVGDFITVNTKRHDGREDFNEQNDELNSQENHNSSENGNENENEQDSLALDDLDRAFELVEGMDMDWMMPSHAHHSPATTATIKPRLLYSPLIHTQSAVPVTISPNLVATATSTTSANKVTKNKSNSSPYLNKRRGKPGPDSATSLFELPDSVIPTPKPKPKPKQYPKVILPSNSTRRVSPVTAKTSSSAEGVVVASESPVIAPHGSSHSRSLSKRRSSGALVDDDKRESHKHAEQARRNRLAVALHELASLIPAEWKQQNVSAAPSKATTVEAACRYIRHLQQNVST
# Test: relative binding free energy (BET-seq); higher = weaker binding
# Conditions: reference: library average
row,Sequence,relative binding free energy
1,GGGTCCACGTGTGTTG,0.19 kcal/mol
2,TATAGCACGTGGAATT,0.13 kcal/mol
3,TGTAACACGTGTTGCA,-0.11 kcal/mol
4,GGTGTCACGTGAGGGC,0.2 kcal/mol
5,GGGGGCACGTGGTACT,-0.16 kcal/mol
6,TTGTTCACGTGAAGGT,0.41 kcal/mol
7,GAGTGCACGTGGAGCG,0.06 kcal/mol
8,AATGGCACGTGTTTAT,-0.02 kcal/mol
9,TGTTTCACGTGCATTT,0.15 kcal/mol
10,GCCGGCACGTGTTTTG,0.07 kcal/mol
11,GAATGCACGTGAGTTT,0.4 kcal/mol
12,ACGTTCACGTGTGGCA,0.19 kcal/mol
13,TGGGCCACGTGGGCGG,-0.26 kcal/mol
14,GGAGGCACGTGCTGTG,-0.26 kcal/mol
15,GCGGGCACGTGCGATG,-0.1 kcal/mol
16,GTCGTCACGTGATGAT,0.34 kcal/mol
17,TCGGCCACGTGTGGGG,-0.02 kcal/mol
18,CGGGACACGTGTAAGG,0.14 kcal/mol
19,TATTACACGTGGGTCA,-0.01 kcal/mol
20,CTTAGCACGTGTATTT,-0.01 kcal/mol
21,AAGTTCACGTGAGGAT,0.39 kcal/mol
22,ATAAGCACGTGGGGTG,-0.33 kcal/mol
23,GAGGGCACGTGGACTT,-0.09 kcal/mol

row,Sequence,relative binding free energy
1,GTGGACACGTGTTATA,0.04 kcal/mol
2,AGGGGCACGTGTTGCA,-0.18 kcal/mol
3,TTTCACACGTGCGGTG,0.03 kcal/mol
4,TCGTGCACGTGTGTGG,0.01 kcal/mol
5,TGGCACACGTGGGAAT,0.11 kcal/mol
6,TGCGGCACGTGGTGCT,-0.15 kcal/mol
7,GTAGGCACGTGGTCGA,-0.09 kcal/mol
8,AGTTACACGTGATGTT,0.22 kcal/mol
9,GATGTCACGTGATGGA,0.32 kcal/mol
10,GACGGCACGTGTTGGA,0.1 kcal/mol
11,TGTGGCACGTGGATAA,-0.07 kcal/mol
12,TTCTTCACGTGTAGTT,0.28 kcal/mol
13,ATTGACACGTGGTCGG,-0.19 kcal/mol
14,ATGGTCACGTGTGATT,0.14 kcal/mol
15,TTATGCACGTGCTAAG,-0.07 kcal/mol
16,ACGGTCACGTGCGGGA,0.16 kcal/mol
17,GATCTCACGTGGGTTG,0.19 kcal/mol
18,CGATACACGTGGGGGA,-0.08 kcal/mol
19,GCTTTCACGTGTTGAT,0.28 kcal/mol
20,ATAGTCACGTGTGTCA,0.14 kcal/mol
21,GTACGCACGTGTTGAG,0.06 kcal/mol
22,CGTGGCACGTGTTAGC,-0.14 kcal/mol
23,TTTATCACGTGTAACA,0.34 kcal/mol

row,Sequence,relative binding free energy
1,AAATGCACGTGTGGTA,-0.02 kcal/mol
2,GGGTGCACGTGCGGGG,-0.09 kcal/mol
3,GGGGACACGTGTTTTC,0.1 kcal/mol
4,TCGTCCACGTGGTGGG,0.02 kcal/mol
5,TGGGCCACGTGAGAGG,0.09 kcal/mol
6,GAATTCACGTGGTGCA,0.33 kcal/mol
7,TTTAGCACGTGTGCGA,0.02 kcal/mol
8,AATAGCACGTGTTGAA,-0.03 kcal/mol
9,TCGGTCACGTGTCAGG,0.14 kcal/mol
10,GGGTCCACGTGCAGGT,-0.07 kcal/mol
11,GGCTTCACGTGTCTGT,0.32 kcal/mol
12,GGAATCACGTGTTAGA,0.18 kcal/mol
13,TTCTACACGTGGTGTA,-0.04 kcal/mol
14,TGTGCCACGTGGAGTT,-0.02 kcal/mol
15,TTGTACACGTGAAAAG,0.33 kcal/mol
16,GGAGTCACGTGGGTAT,0.12 kcal/mol
17,CGTGCCACGTGGGTGT,-0.24 kcal/mol
18,TGTGGCACGTGAAATG,0.11 kcal/mol
19,TGTGTCACGTGGACGA,0.06 kcal/mol
20,TAGCGCACGTGGTATT,-0.21 kcal/mol
21,TTTTACACGTGCACGG,0.03 kcal/mol
22,TGCGGCACGTGGGGGA,-0.24 kcal/mol
23,GGTTACACGTGCGTCT,0.17 kcal/mol

row,Sequence,relative binding free energy
1,GTTTACACGTGAGTGG,0.36 kcal/mol
2,ATGGGCACGTGTATAT,-0.16 kcal/mol
3,ACTGGCACGTGAGGGC,0.12 kcal/mol
4,GGCGTCACGTGGAGAT,0.09 kcal/mol
5,AGAAACACGTGTGGTG,-0.08 kcal/mol
6,GCTTTCACGTGTTGTC,0.39 kcal/mol
7,TTGGTCACGTGATGCG,0.24 kcal/mol
8,TTTACCACGTGTGATG,0.01 kcal/mol
9,GGGGGCACGTGGTTGT,-0.1 kcal/mol
10,GGGTTCACGTGGGATC,0.26 kcal/mol
11,TTGGACACGTGTCGGT,0.12 kcal/mol
12,CTAGGCACGTGGTTCT,-0.08 kcal/mol
13,AGTGGCACGTGGGGAC,-0.27 kcal/mol
14,ATGTCCACGTGGGGTC,0.06 kcal/mol
15,TTTGACACGTGTTTAA,-0.11 kcal/mol
16,TGCTACACGTGGGTAG,-0.04 kcal/mol
17,TTTTGCACGTGATAGT,0.11 kcal/mol
18,TTTGTCACGTGTCAAA,0.18 kcal/mol
19,GGGTACACGTGTGTAT,0.2 kcal/mol
20,GGGGTCACGTGGCTCA,0.02 kcal/mol
21,CGGTTCACGTGGGTTC,0.28 kcal/mol
22,GATGACACGTGGGGAG,0 kcal/mol
23,TTGTACACGTGAGTGT,0.27 kcal/mol

row,Sequence,relative binding free energy
1,CTGTGCACGTGCGTAG,-0.03 kcal/mol
2,TTGAGCACGTGATATA,-0.06 kcal/mol
3,AAGGTCACGTGATGGA,0.31 kcal/mol
4,TTGTTCACGTGTTTAC,0.42 kcal/mol
5,TGGTGCACGTGCGTTC,-0.09 kcal/mol
6,CGTGCCACGTGCGTGG,-0.18 kcal/mol
7,CTGATCACGTGGGTCG,0.06 kcal/mol
8,ATTGCCACGTGAGGGT,0.01 kcal/mol
9,ACAGTCACGTGGGGTT,-0.11 kcal/mol
10,CCAGGCACGTGGTGGA,-0.09 kcal/mol
11,TTTGACACGTGTAATG,0.25 kcal/mol
12,TTGTCCACGTGGTGGT,0.01 kcal/mol
13,AGAGTCACGTGGTGAT,0.08 kcal/mol
14,TGGAACACGTGTAGGA,0.14 kcal/mol
15,GGGGACACGTGTGTTG,0.11 kcal/mol
16,GATCTCACGTGTTTGG,0.21 kcal/mol
17,GGAAGCACGTGCGGGG,-0.15 kcal/mol
18,CTAGTCACGTGCTTGT,0.11 kcal/mol
19,GTAGGCACGTGGACGT,-0.1 kcal/mol
20,GTTTTCACGTGACGAT,0.42 kcal/mol
21,TGTATCACGTGTTAGA,0.11 kcal/mol
22,ATATGCACGTGATGTA,0.05 kcal/mol
23,GAGGACACGTGTCGTG,0.1 kcal/mol

# Source: the BET-seq Pho4 binding data (Le et al. 2018)
